Where a chain is given by its changes, count along the chain named. Results are given in words; binding and its absence hold for the method and conditions named. Binding seen in cells or lysates may run through a third protein. Some results given as binding are weak or reduced against the parent protein; the word gives no strength. Sequences can lack the tags named with a protein.
What was measured:
[1] = target: T1, 3xFLAG-tagged ATF7IP K16R mutant (expressed in HEK293T cells) (mouse) (UniProt Q7TT18); test: co-IP; HEK293T cells co-transfected with G9a or GLP plus 3xFLAG-ATF7IP WT, K16R or Δ(1–16); anti-FLAG M2 agarose; western blot
T1 sequence: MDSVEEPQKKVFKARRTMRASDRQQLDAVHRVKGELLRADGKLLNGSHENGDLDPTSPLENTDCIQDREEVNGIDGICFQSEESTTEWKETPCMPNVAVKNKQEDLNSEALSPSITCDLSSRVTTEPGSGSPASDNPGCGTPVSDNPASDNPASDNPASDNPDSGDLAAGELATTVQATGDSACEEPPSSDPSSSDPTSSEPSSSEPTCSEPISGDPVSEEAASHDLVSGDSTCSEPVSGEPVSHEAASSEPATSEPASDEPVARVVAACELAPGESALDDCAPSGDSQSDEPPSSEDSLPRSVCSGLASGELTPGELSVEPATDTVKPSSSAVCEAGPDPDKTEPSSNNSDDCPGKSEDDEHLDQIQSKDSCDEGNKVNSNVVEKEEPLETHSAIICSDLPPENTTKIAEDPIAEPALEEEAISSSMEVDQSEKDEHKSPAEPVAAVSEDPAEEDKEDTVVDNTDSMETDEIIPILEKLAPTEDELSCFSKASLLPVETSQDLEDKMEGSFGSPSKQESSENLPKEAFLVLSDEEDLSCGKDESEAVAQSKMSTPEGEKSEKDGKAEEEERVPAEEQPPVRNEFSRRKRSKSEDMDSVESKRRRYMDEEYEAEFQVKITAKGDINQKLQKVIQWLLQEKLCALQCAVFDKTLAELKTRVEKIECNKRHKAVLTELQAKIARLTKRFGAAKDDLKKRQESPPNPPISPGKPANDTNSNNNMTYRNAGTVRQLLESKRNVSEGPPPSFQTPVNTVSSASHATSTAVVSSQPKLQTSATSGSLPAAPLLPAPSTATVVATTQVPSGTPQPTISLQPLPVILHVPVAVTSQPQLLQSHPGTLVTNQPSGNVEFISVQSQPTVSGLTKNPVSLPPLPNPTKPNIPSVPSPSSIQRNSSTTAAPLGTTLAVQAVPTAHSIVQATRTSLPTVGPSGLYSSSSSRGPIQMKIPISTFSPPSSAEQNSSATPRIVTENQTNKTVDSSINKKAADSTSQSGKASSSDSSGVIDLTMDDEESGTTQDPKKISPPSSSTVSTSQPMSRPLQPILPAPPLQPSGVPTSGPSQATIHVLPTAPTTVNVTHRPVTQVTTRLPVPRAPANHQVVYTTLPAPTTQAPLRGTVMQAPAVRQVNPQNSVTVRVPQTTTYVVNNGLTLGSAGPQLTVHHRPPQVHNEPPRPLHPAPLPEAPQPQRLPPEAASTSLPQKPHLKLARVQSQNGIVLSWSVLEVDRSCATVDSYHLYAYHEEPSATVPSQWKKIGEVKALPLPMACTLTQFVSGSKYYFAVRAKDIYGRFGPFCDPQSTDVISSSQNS

By UniProt entry, the sequences of proteins in these tests, tags left out.
UniProt Q9Z148: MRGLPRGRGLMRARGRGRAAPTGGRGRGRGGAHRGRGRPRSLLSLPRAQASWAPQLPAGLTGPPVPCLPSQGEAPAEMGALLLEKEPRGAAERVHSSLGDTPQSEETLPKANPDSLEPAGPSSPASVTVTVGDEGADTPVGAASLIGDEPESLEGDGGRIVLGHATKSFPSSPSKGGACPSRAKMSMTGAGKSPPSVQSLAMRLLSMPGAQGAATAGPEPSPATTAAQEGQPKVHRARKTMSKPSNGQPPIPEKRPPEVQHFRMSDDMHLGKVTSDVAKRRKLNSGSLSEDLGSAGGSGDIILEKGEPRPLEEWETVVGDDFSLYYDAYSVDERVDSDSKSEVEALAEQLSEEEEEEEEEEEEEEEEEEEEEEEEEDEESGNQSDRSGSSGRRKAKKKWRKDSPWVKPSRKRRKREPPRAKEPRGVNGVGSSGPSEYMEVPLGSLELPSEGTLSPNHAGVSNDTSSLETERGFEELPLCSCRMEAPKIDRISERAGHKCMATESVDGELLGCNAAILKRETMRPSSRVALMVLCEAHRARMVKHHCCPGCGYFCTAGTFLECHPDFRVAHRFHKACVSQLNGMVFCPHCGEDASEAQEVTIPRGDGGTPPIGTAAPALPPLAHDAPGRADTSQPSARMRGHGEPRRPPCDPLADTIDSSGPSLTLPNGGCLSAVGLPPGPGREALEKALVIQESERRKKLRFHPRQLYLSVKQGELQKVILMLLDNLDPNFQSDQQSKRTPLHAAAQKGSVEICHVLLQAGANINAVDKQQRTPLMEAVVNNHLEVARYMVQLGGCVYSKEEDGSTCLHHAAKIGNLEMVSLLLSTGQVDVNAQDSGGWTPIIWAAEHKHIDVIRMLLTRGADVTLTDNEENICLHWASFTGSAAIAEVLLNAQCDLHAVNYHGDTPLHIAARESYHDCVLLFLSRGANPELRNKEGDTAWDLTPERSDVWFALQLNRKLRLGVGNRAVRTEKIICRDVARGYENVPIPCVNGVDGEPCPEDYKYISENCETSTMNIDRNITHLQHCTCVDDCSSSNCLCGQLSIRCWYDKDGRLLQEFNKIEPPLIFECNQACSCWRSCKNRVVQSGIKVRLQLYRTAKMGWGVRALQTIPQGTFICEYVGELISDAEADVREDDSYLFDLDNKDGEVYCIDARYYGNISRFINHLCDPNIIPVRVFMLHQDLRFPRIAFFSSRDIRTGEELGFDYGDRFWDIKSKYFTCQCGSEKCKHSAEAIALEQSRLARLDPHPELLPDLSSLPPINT

[2] = target: T2, 3xFLAG-tagged ATF7IP WT (expressed in HEK293T cells) (mouse) (UniProt Q7TT18); test: as above
T2 sequence: T1 sequence with R16K

binding [1]: binds
binding [2]: binds
Substance: G9a (co-transfected into HEK293T cells) (from UniProt Q9Z148 1-1263) (enzyme)
